Experimental data published in publication PMC12136788.
Some of the results follow.

T1: UNK ZnF1-6 (called full-length) (human, UniProt Q9C0B0 30-357)
T1 sequence: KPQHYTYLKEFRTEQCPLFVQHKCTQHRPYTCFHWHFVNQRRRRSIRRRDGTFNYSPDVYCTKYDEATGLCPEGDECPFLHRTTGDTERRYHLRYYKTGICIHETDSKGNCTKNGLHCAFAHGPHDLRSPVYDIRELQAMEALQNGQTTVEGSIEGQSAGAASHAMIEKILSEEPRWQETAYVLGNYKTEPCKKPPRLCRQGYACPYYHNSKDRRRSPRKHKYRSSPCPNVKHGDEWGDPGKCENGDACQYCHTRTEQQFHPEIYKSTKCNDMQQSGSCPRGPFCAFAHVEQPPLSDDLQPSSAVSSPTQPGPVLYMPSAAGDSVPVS

B1: chr11:73401874:73401975:-|3pUTR|ENSG00000054965|unk|total|mutant (ssRNA)
RNA: GGGAGUUCUACAGUCCGACGAUCUGCAGGGUUUGUCCUUUACUUAUCUGCCCCUUUCCCCGAAAACUCCUCGUUUCUGAAAUCCGGCAUUAUAUGGUUCCAGGACCCAGCCUUCAAAAUUCCUGGCAGGCCAGCUUCAACAUUCAACAGAGGAUUGAGCAUCA
B2: chr1:180885316:180885399:+|3pUTR|ENSG00000143324|msi1_unk|total|mutant (ssRNA)
RNA: GGGAGUUCUACAGUCCGACGAUCUUGGCAGCCAUUUCUCCCAGCAGUUUUAAAGGAUGAACAUUGGAUUUCAUGCCAUCCCACCGAAAACCUGUUUUAAAAUUUCCGGGAUCUUUACUUGGUCAUACAUGAAAAGUACACUGCCAACAGAGGAUUGAGCAUCA
B3: ENSG00000143476:stop:overlap|stop_codon|ENSG00000143476|stop_codon|NA|stop_codon (ssRNA)
RNA: GGGAGUUCUACAGUCCGACGAUCCAUACUUCCAUAGAAAGUCCCAGGAGGACUUCUGUGGUCCUGAACACUCAACAGAAUUAUAGAUUCUAAUCUGAGUGAGUUACUGAGCUUUGGUCCACUAAAACAAGCUGAGCUUUGGUCCAACAGAGGAUUGAGCAUCA
B4: ENSG00000070961:be:win_2101|CDS|ENSG00000070961|bound_else_gene|NA|bound_elsewhere_windowed (ssRNA)
RNA: GGGAGUUCUACAGUCCGACGAUCGGAAUUACUGUGCGGAUGGUCACUGGUGAUAAUAUUAAUACUGCUCGGGCCAUUGCUACCAAAUGUGGUAUUUUACAUCCUGGGGAAGAUUUUCUGUGCCUAGAAGGUAAAGAUUUUAACCAACAGAGGAUUGAGCAUCA
B5: chr1:110340924:110341033:+|CDS|ENSG00000162775|unk|total|mutant (ssRNA)
RNA: GGGAGUUCUACAGUCCGACGAUCUGCUGCCUGGACCCAUAUGCGGGGCUUCCCACUUGGUGGCCCAGAUCGACGCCUCCGAGCCGACUUUGCCGACACCGAACAUCGUUACCAGCAGCAGUAUCUGCAGCCUCUGCCCUUGACCAACAGAGGAUUGAGCAUCA
B6: chr11:75572625:75572772:+|3pUTR|ENSG00000149257|msi1|FALSE|unique (ssRNA)
RNA: GGGAGUUCUACAGUCCGACGAUCUCUGGCGUUGUGGGGAUGAACUUUUUGUUUUGUUUCUUCCUUUUUUAGUUCUUCAAAGAUAGGGAGGGAAGGGGGAACAUGAGCCUUUGUUGCUAUCAAUCCAAGAACUUAUUUGUACAUCAACAGAGGAUUGAGCAUCA
B7: chr15:63694043:63694144:-|CDS|ENSG00000103657|unk|FALSE|unique (ssRNA)
RNA: GGGAGUUCUACAGUCCGACGAUCAGGACCUAUGCUGAUAAACUGAGUCCCAAAGUAGUUCAAUCCUUGUUGGAUCUACUCUGUAGUCAGUUGAAGAAUUUAUUGUCCCAAACUGGUGUACUACAUAUGGCCUCUUUCGGAGAACAACAGAGGAUUGAGCAUCA
B8: ENSG00000169908:stop:overlap|stop_codon|ENSG00000169908|stop_codon|NA|stop_codon (ssRNA)
RNA: GGGAGUUCUACAGUCCGACGAUCGAGGCAUAUGUGGCUUUUGCUGCUCUCACCAACAGGUAAGAACCUGCAUGAAAAUGUCGUAGUCUGGCCCUGGUGUUAAUAUACCAUUGUUUUCAUCAUAAAGAAAAAGGCAAAACCAAACAACAGAGGAUUGAGCAUCA
B9: chr2:134980819:134981518:-|CDS|ENSG00000176601|control|control|control (ssRNA)
RNA: GGGAGUUCUACAGUCCGACGAUCUGCUUGCAAGAGAACACUGUGAGCAUUUUCAUGGAGUUUGUUCCUGGUGGCUCAAUCUCUAGUAUUAUAAACCGUUUUGGGCCAUUGCCUGAGAUGGUGUUCUGUAAAUAUACGAAACAACAACAGAGGAUUGAGCAUCA
B10: chrX:117909842:117909960:-|CDS|ENSG00000003096|unk|FALSE|unique (ssRNA)
RNA: GGGAGUUCUACAGUCCGACGAUCAGCACAGGGGAGUUCUUGAAACUCCCUUUUGAGCGUCUUGCCUUCGUGCUUUCCAGUAAUAGCCUUAAGCACUGUACUGAACUUGAGCUCUUUAAGGCUACCUGUCGUUGGCUUCGCCUGCAACAGAGGAUUGAGCAUCA
B11: chr1:91680342:91683857:-|three_prime_utr|ENSG00000069702|control|control|control (ssRNA)
RNA: GGGAGUUCUACAGUCCGACGAUCGUGCUGCCCACAGCAUCGGCAGCACGCAGAGCACGCCUUGCUCCAGCAGCAGCACGGCCUAGCCCAACCCAGCCCAACCCGGCCCAACCCAGCCCAGCCCAGCUCAGCUCAGCUACUGCCCAACAGAGGAUUGAGCAUCA
B12: ENSG00000107863:be:win_1301|CDS|ENSG00000107863|bound_else_gene|NA|bound_elsewhere_windowed (ssRNA)
RNA: GGGAGUUCUACAGUCCGACGAUCCUUUGCAGGGACGACGUCGAAGCACCUCUCAUGAUCGAGUGCCCCAGUCUGUCCAGAUACGGCAACGCAGUGUGUCCCAAGAAAGACUGGAAGAUUCUGUGCUAAUGAAGUAUUGUCCAACAACAGAGGAUUGAGCAUCA
B13: chr22:20819776:20819877:-|CDS|ENSG00000241973|unk|FALSE|unique (ssRNA)
RNA: GGGAGUUCUACAGUCCGACGAUCUGUAACGUUUUCACUUGAUCUUCUAGAAUACCUUUGCAAGUAUGCUAUCCCAUGCCUGAUAGGAAUCUCGCGAGCAUUUGGGCGUUACAGCAACAUGGAAGAGUCUCUCCUCUCAAAGCUCAACAGAGGAUUGAGCAUCA
B14: chr6:89938216:89938327:-|CDS|ENSG00000112182|unk|FALSE|unique (ssRNA)
RNA: GGGAGUUCUACAGUCCGACGAUCUCUUCCAAGGAACGAUUUCCAGAUGAUGAUUAAAAUGCACAAGCUAACCUCAGAACAGUUAGAGUUUAUUCAUGAUGUCCGACGGCGCAGCAAGAACCGCAUCGCGGCCCAGCGCUGCCGCAACAGAGGAUUGAGCAUCA
B15: chr20:13714314:13714426:-|3pUTR|ENSG00000089048|unk|total|mutant (ssRNA)
RNA: GGGAGUUCUACAGUCCGACGAUCUUUUUCCCGCCAUAAAGGAUGGAAGUCAAGAACUUUUUGUUGUUCCGUCAUGUUAAGUACCGUUUAUGAAAUUAACUUGUAAAUAAAAGUGUAAAAUAUUUUCAUUAUUUUGUACCGCACCAACAGAGGAUUGAGCAUCA
B16: chr7:77627539:77627665:+|CDS|ENSG00000127947|unk|FALSE|bound_elsewhere (ssRNA)
RNA: GGGAGUUCUACAGUCCGACGAUCAAUAUUUCAACAGCAAGUGCCACAGUUUCUGCUGCCACUAGUACUGAAAGCAUUUCUACUAGGAAAGUAUUGCCAAUGUCCAUUGCUAGACAUAAUAUAGCAGGAACAACACAUUCAGGUCAACAGAGGAUUGAGCAUCA
B17: chr11:75562225:75562326:+|5pUTR|ENSG00000149257|msi1|total|mutant (ssRNA)
RNA: GGGAGUUCUACAGUCCGACGAUCGCAGGAGGGGGUGGGGACUGCCAUAUACCGAUCCCGGGAGCAGGGGAGCGGGCUAAGAGCCGAAUCGUGUCGCGGCUCGAGAGCGAGAGUCACGUCCCGGCGCCCGCCCAGCCCGACCCACAACAGAGGAUUGAGCAUCA
B18: chr2:74529670:74529771:-|5pUTR|ENSG00000115307|unk|FALSE|unique (ssRNA)
RNA: GGGAGUUCUACAGUCCGACGAUCUCUCCGCCGGACGCGAGUUGUGAGACGGCCCAAGGGGCCGCGGGGUAUGCUGGGACCGCUAGCCCUUCCGGCGCGCCUCAGGACUUCGGGUCCCCUCACCCCGGGCGGAUGCCCAAAGACCAACAGAGGAUUGAGCAUCA
B19: chr17:44319658:44319728:-|3pUTR|ENSG00000013306|msi1_unk|FALSE|overlapping (ssRNA)
RNA: GGGAGUUCUACAGUCCGACGAUCUCCCUGUGUUUGCUGUAGCUGGGCAUGUCUCCAGGAACCAAGAAGCCCUCAGCCUGGUGUAGUCUCCCUGACCCUUGUUAAUUCCUUAAGUCUAAAGAUGAUGAACUUCUGCCUGGUGCCCAACAGAGGAUUGAGCAUCA
B20: chr7:73478007:73478118:-|CDS|ENSG00000009954|unk|FALSE|unique (ssRNA)
RNA: GGGAGUUCUACAGUCCGACGAUCAAAGGCACGCAGAAGAUGACACGAGCCCCACGGAAUUCUGGGGGUACACCUAGGACCUCUAGUAAACCUCAUAAACAUCUGCCUCCUGCAGCCCUACACCUCAUUGCAUACUACAAAGAACAACAGAGGAUUGAGCAUCA
B21: ENSG00000124766:be:win_1201|CDS|ENSG00000124766|bound_else_gene|NA|bound_elsewhere_windowed (ssRNA)
RNA: GGGAGUUCUACAGUCCGACGAUCUUCGAAGACGACCUGCUCGACCUGAACCCCAGCUCAAACUUUGAGAGCAUGUCCCUGGGCAGCUUCAGUUCGUCGUCGGCGCUCGACCGGGACCUGGAUUUUAACUUCGAGCCCGGCUCCCAACAGAGGAUUGAGCAUCA
B22: chr6:43013266:43013367:-|CDS|ENSG00000124733|msi1|FALSE|bound_elsewhere (ssRNA)
RNA: GGGAGUUCUACAGUCCGACGAUCAUCCCUGUCCUACCGCCUCCCUGUUCUUGCAGCCCCUGCCCGGAUGGCAACAGUAGUUCUAGGAGGAGACACCAUGGGCCCUGAGCGUAUCUUCCCCAAUCAGACUGAGGAACUGGGACACAACAGAGGAUUGAGCAUCA

These binders were tested against T1, UNK ZnF1-6 (called full-length) (assay: nsRBNS (natural sequence RNA bind-n-seq); RBNS binding buffer (assumed for nsRBNS): 25 mM Tris pH 7.5, 150 mM KCl, 3 mM MgCl2, 0.01% Triton X-100, 500 ug/ml BSA, 20 U/ml SUPERase-In, 4 C; UNK is unkempt and MSI1 is Musashi-1; names of the RNAs are library labels; protein concentration not given here; high values mean tight binding).

Row | Binder | binding signal
1 | B1 | 0.747 enrichment R
2 | B2 | 0.292 enrichment R
3 | B3 | 0.561 enrichment R
4 | B4 | 0.458 enrichment R
5 | B5 | 0.673 enrichment R
6 | B6 | 0.937 enrichment R
7 | B7 | 0.292 enrichment R
8 | B8 | 0.408 enrichment R
9 | B9 | 0.812 enrichment R
10 | B10 | 0.41 enrichment R
11 | B11 | 1.06 enrichment R
12 | B12 | 0.453 enrichment R
13 | B13 | 0.38 enrichment R
14 | B14 | 0.536 enrichment R
15 | B15 | 0.526 enrichment R
16 | B16 | 0.403 enrichment R
17 | B17 | 0.838 enrichment R
18 | B18 | 0.542 enrichment R
19 | B19 | 1.52 enrichment R
20 | B20 | 0.695 enrichment R
21 | B21 | 0.718 enrichment R
22 | B22 | 0.841 enrichment R
